Results on seven molecules are retold here after US20200131274A1 (CRESCENDO BIOLOGICS, published 2020).

Values joined by “and” are separate entries in the source; they are usually repeats but may differ in a detail not shown here. Equal values may be shown once.

The target of experiment [1] is T1, human prostate specific membrane antigen (PSMA), full-length, on cells (human, UniProt Q04609).
T1 construct: also called huPSMA; human PSMA
Kind of experiment: FMAT direct cell binding, CHO human PSMA cells.

Experiment [2] concerns the target T1, human prostate specific membrane …. The experiment is described as follows: cell-based or functional assay.
The target in experiment [3] is T2, cynomolgus PSMA, full-length, on CHO cells (cynomolgus, UniProt A0A2K5VNZ0 1-750). Kind of experiment: cell-based or functional assay.
Experiment [4] concerns the target T1, human prostate specific membrane …. Kind of experiment: FMAT direct cell binding, DU145 PSMA cells.
The target is the same in experiment [5]. The experiment is described as follows: FMAT direct cell binding, LNCap cells.
For experiment [6] the target is unchanged. The experiment is described as follows: cell-based or functional assay. The source holds these as a separate data set.
Experiment [7] addresses T2, cynomolgus PSMA, full-length, on CHO …. The experiment is described as follows: FMAT direct cell binding, CHO cyno PSMA cells.
Experiment [8] deals with T3, recombinant human PSMA (R&D, cat. no. 4234-ZN) (human, UniProt Q04609).
T3 construct: Bought protein; also called rhPSMA; Recombinant PMSA
The experiment is described as follows: Octet RED384 BLI, PSMA on sensor, VH series from 0.375 ug/ml.

Experiment [9] has as its target T3, recombinant human PSMA (R&D, cat. no. …). Kind of experiment: Octet RED384 BLI, PSMA on sensor, Table 21 c.
The target of experiment [10] is T1, human prostate specific membrane …. Kind of experiment: FMAT cell binding, huPSMA CHO 1A10 cells, after 7 days in human serum at 37 C.
In experiment [11] the target is T3, recombinant human PSMA (R&D, cat. no. …). Kind of experiment: Octet RED384 BLI, PSMA on sensor, Table 21 b.
Experiment [12] addresses T1, human prostate specific membrane …. The experiment is described as follows: FMAT cell binding, huPSMA CHO 1A10 cells, after 1 day in human serum at 37 C.
For experiment [13] the target is unchanged. The experiment is described as follows: FMAT cell binding, huPSMA CHO 1A10 cells, after 4 days in human serum at 37 C.
For experiment [14] the target is unchanged. The experiment is described as follows: FMAT cell binding, huPSMA CHO 1A10 cells, after 0 days in human serum at 37 C.
Experiment [15] shares this target. The experiment is described as follows: FMAT cell binding, huPSMA CHO cells, after 1 day in human serum at 37 C.
The target is the same in experiment [16]. Kind of experiment: FMAT cell binding, huPSMA CHO cells, after 4 days in human serum at 37 C.
Experiment [17] shares this target. Kind of experiment: FMAT cell binding, huPSMA CHO cells, after 7 days in human serum at 37 C.
The target is the same in experiment [18]. The experiment is described as follows: FMAT cell binding, huPSMA CHO cells, after 0 days in human serum at 37 C.
Experiment [19] has the same target. Kind of experiment: FMAT direct cell binding, human PSMA-CHO cells.

B1: single VH domain antibody 1.12 (VHH)
VHH: EVQLLESGGGLVQPGGSLRLSCAASGFSFSSYALSWVRQAPGKGLEWVSSIGENNATTDYAD[… about 20 residues …]MNSLRVEDTAVYYCVKDGVHWGQGTLVTVSS
notes: Human single VH domain antibody (Humabody)
As for B1, the EC50 in experiment [1] was found to be 50.2 pM; in experiment [4], 41.5 pM; in experiment [5], 199 pM; in experiment [7], 110 pM. Moreover, in experiment [2], the “His-ZAP cell killing, human PSMA Average EC50” value amounted to 18 pM. Moreover, the “His-ZAP cell killing, cyno PSMA EC50” value in experiment [3] was determined as 970 pM. Moreover, in experiment [6], the “pHrodo Green internalization assay, human PSMA Average EC50 (M)” value (shortened to “pHrodo Green internalization assay”) worked out at 5.7e-10 M. The Kd in experiment [8] amounted to 550 pM. Moreover, the koff in experiment [8] is 0.000428 s⁻¹.

B2: single VH domain antibody 1.27 (VHH)
VHH: EVQLLESGGGLVQPGGSLRLSCAASGFSFSSYALSWVRQAPGKGLEWVSSIGENDGTTDYAD[… about 20 residues …]MNSLRVEDTAVYYCVKDGVHWGQGTLVTVSS
notes: Human single VH domain antibody (Humabody); also called VH 1.27
With B2, the dissociation constant Kd in [9] and in [11] was 490 pM throughout. Besides, the koff in [9] and in experiment [11] was 0.000645 s⁻¹ in each case. For the same molecule, the EC50 in experiment [10] amounted to 110 pM; in experiment [12] it was 110 pM; in experiment [13], 120 pM; in experiment [14], 130 pM. In addition, the “His-ZAP cell killing, human PSMA Average EC50” value in experiment [2] was found to be 52 pM. Further, the “pHrodo Green internalization assay” value in [6] was 3.9e-10 M.

B3: single VH domain antibody 1.17 (VHH)
VHH: EVQLLESGGGLVQPGGSLRLSCAASGFSFSSYALSWVRQAPGKGLEWVSSIGENNDTTDYAD[… about 20 residues …]MNSLRVEDTAVYYCVKDGVHWGQGTLVTVSS
notes: as for B1
As for B3, the EC50 is 33.4 pM in [1]; 274 pM and 150 pM in [10]; 31 pM in experiment [4]; 58.5 pM in experiment [5]; 253 pM and 160 pM in experiment [12]; 259 pM and 180 pM in experiment [13]. Also, the EC50 in experiment [7] was 91.3 pM; in [14], 273 pM and 160 pM. Besides, the Kd is 610 pM in [9], 580 pM in [11] and 610 pM in experiment [8]. Also, the koff came out at 0.000551 s⁻¹ in experiment [9], 0.000392 s⁻¹ in experiment [11] and 0.000551 s⁻¹ in experiment [8]. The “His-ZAP cell killing, human PSMA Average EC50” value in [2] is 15 pM and 26 pM. In addition, in experiment [3], the “His-ZAP cell killing, cyno PSMA EC50” value is 560 pM. The “pHrodo Green internalization assay” value in experiment [6] was 6.8e-10 M and 2.9e-10 M.

B4: 1.17-6GS-2.1 (bispecific antibody)
chain: EVQLLESGGGLVQPGGSLRLSCAASGFSFSSYALSWVRQAPGKGLEWVSSIGENNDTTDYAD[… about 20 residues …]MNSLRVEDTAVYYCVKDGVHWGQGTLVTVSSGGGGSGGGGSGGGGSGGGGSGGGGSGGGGSEVQLVESGGGVVQPGRSLRLSCAASGFSFSGYGMHWVRQAPGKGLEWVAYISYDGSNKYYADSVKGRFTISRDNSKNTLYLQMNSLRAEDTAVYYCAKDPAWGLRLGESSSYDFDIWGQGTMVTVSS
notes: linker (G4S)6; also called 1.17-2.1
In the case of B4, the EC50 in experiment [15] was 47.7 pM; in experiment [16] it was 45.8 pM; in experiment [17], 54.4 pM; in [18], 56.9 pM; in experiment [19] it was 325 pM. The “His-ZAP cell killing, human PSMA Average EC50” value in [2] worked out at 13 pM. In addition, in experiment [3], the “His-ZAP cell killing, cyno PSMA Average EC50” value worked out at 15 pM.

B5: 1.17-6GS-2.22 (bispecific antibody)
chain: EVQLLESGGGLVQPGGSLRLSCAASGFSFSSYALSWVRQAPGKGLEWVSSIGENNDTTDYAD[… about 20 residues …]MNSLRVEDTAVYYCVKDGVHWGQGTLVTVSSGGGGSGGGGSGGGGSGGGGSGGGGSGGGGSEVQLVESGGGVVQPGRSLRLSCAASGFSFSGYGTHWVRQAPGKGLEWVAYISYDGSNKYYAAPVKGRFTISRDNSKNTLYLQMNSLRAEDTAVYYCAKDAAWGLRLGESSSYDFDIWGQGTMVTVSS
notes: linker (G4S)6; also called 1.17-2.22
As to B5, the “His-ZAP cell killing, human PSMA Average EC50” value in [2] was 18 pM. Moreover, the “His-ZAP cell killing, cyno PSMA Average EC50” value in [3] came out at 12 pM. In experiment [19], the EC50 is 199 pM.

B6: 1.17-6GS-2.17 (bispecific antibody)
chain: EVQLLESGGGLVQPGGSLRLSCAASGFSFSSYALSWVRQAPGKGLEWVSSIGENNDTTDYAD[… about 20 residues …]MNSLRVEDTAVYYCVKDGVHWGQGTLVTVSSGGGGSGGGGSGGGGSGGGGSGGGGSGGGGSEVQLVESGGGVVQPGRSLRLSCAASGFSFSGYGMHWVRQAPGKGLEWVAYISYDASNKYYADNVKGRFTISRDNSKNTLYLQMNSLRAEDTAVYYCAKDPAWGLRLGESSSYDFDIWGQGTMVTVSS
notes: linker (G4S)6
On to B6, for which the EC50 in [15] is 33.2 pM; in [16], 47.3 pM; in experiment [17], 57 pM; in experiment [18], 67.4 pM; in [19], 192 pM. The “His-ZAP cell killing, human PSMA Average EC50” value in [2] was 14 pM. Further, the “His-ZAP cell killing, cyno PSMA Average EC50” value in [3] was determined as 10 pM.

B7: 1.17-6GS-2.15 (bispecific antibody)
chain: EVQLLESGGGLVQPGGSLRLSCAASGFSFSSYALSWVRQAPGKGLEWVSSIGENNDTTDYAD[… about 20 residues …]MNSLRVEDTAVYYCVKDGVHWGQGTLVTVSSGGGGSGGGGSGGGGSGGGGSGGGGSGGGGSEVQLVESGGGVVQPGRSLRLSCAASGFSFSGYGLHWVRQAPGKGLEWVAYISYDKSNKYYADKVKGRFTISRDNSKNTLYLQMNSLRAEDTAVYYCAKDPAWGLRLGESSSYDFDIWGQGTMVTVSS
Regarding B7, the “His-ZAP cell killing, cyno PSMA Average EC50” value in [3] worked out at 12 pM.
